# Source: the supplement of paper PMC12217912
# The list shows a part of the results. Sequences were assembled here from the parent chain. Values near 0.05 are background.
# B1: TEV protease; numbered along this chain (parent)
# chain: MGESLFKGPRDYNPISSSICHLTNESDGHTTSLYGIGFGPFIITNKHLFRRNNGTLVVQSLHGVFKVKDTTTLQQHLVDGRDMIIIRMPKDFPPFPQKLKFREPQREERICLVTTNFQTKSMSSMVSDTSCTFPSGDGIFWKHWIQTKDGQCGSPLVSTRDGFIVGIHSASNFTNTNNYFTSVPKNFMELLTNQEAQQWVSGWRLNADSVLWGGHKVFMVKPEEPFQPVKEATQL
# Variants of: B1
# Experiment: raw area under fraction-flipped curve 0-4 h after induction (AUC4h, not background-subtracted), DNA-recorder readout of cleavage of the substrate (dimensionless); higher = more cleavage of the substrate by the protease variant
# Details: temperature: 34 °C; time window: 0-4 h after rhamnose induction
# Procedure: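 In vivo DNA recorder in E. coli TOP10(DE3) ΔrhaA at 34 °C. Each TEVp single-site mutant (parent TEVp 0) is paired with a single-site variant of the 7-mer TEVs (canonical ENLYFQ|S). The substrate sits between flexible linkers in a Bxb1-sfGFP-TEVs-SsrA fusion, so cleavage stabilises Bxb1 and speeds flipping of a recombination array, read by NGS. The value is the raw area under the fraction-flipped curve over 0-4 h after rhamnose induction (AUC4h), with ≥20 reads per time point. It is not background-subtracted; inactive controls average about 0.047.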
# 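Note: Bxb1 expression induced with 0.2% (w/v) L-rhamnose at OD600 near 0.5, cultures sampled hourly, flipped fraction per protease–substrate barcode pair counted by paired-end Illumina sequencing.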
Variant,area with substrate ENLYCQS,area with substrate ENLYEQS,area with substrate ENLYIQS,area with substrate ENLYKQS,area with substrate ENLYMQS,area with substrate ENLYPQS,area with substrate ENLYQQS,area with substrate ENLYRQS,area with substrate ENLYDQS,area with substrate ENLYGQS,area with substrate ENLYHQS,area with substrate ENLYLQS,area with substrate ENLYNQS,area with substrate ENLYSQS,area with substrate ENLYVQS,area with substrate ENLYWQS,area with substrate ENLYYQS,area with substrate ENLYTQS
MGESLFKGPRDYNPISSSICHLTNESDGHTTSLYGIGFGPFIITNKHLFRRNNGTLVVCSLHGVFKVKDTTTLQQHLVDGRDMIIIRMPKDFPPFPQKLKFREPQREERICLVTTNFQTKSMSSMVSDTSCTFPSGDGIFWKHWIQTKDGQCGSPLVSTRDGFIVGIHSASNFTNTNNYFTSVPKNFMELLTNQEAQQWVSGWRLNADSVLWGGHKVFMVKPEEPFQPVKEATQL [Q59C],0.0939,0.0654,0.106,0.072,0.0821,0.0582,0.0705,0.073,,,,,,,,,,
MGESLFKGPRDYNPISSSICHLTNESDGHTTSLYGIGFGPFIITNKHLFRRNNGTLVVQSLHGVFKVKDTTTLQQHLVDGRDMIIIRMRKDFPPFPQKLKFREPQREERICLVTTNFQTKSMSSMVSDTSCTFPSGDGIFWKHWIQTKDGQCGSPLVSTRDGFIVGIHSASNFTNTNNYFTSVPKNFMELLTNQEAQQWVSGWRLNADSVLWGGHKVFMVKPEEPFQPVKEATQL [P89R],0.0757,0.066,0.0861,0.0599,,0.0531,,0.061,0.0599,0.063,0.0635,0.0819,0.0662,0.0671,0.0995,0.0673,0.0614,
MGESLFKGPRDYNPISSSICHLTNESDGHTTSLYGIGFGPFIITNKHLFRRNNGTLVVQSLHGVFKVKDTTTLQQHLVDGRDMIIIRMPKDFPPFPQKLKFREPQREERICLVTTNFQTKSMSSMVSDTSCTFPSGWGIFWKHWIQTKDGQCGSPLVSTRDGFIVGIHSASNFTNTNNYFTSVPKNFMELLTNQEAQQWVSGWRLNADSVLWGGHKVFMVKPEEPFQPVKEATQL [D137W],0.0797,0.0681,,0.0235,,,,,0.0569,,,,0.0576,,,0.073,,0.1
MGESLFKGPRDYNPISSSICHLTNESDGHTTSLYGIGFGPFIITNKHLFRRNNGTLVVQSLHGVFKVKDTTTLQQHLVDGRDMYIIRMPKDFPPFPQKLKFREPQREERICLVTTNFQTKSMSSMVSDTSCTFPSGDGIFWKHWIQTKDGQCGSPLVSTRDGFIVGIHSASNFTNTNNYFTSVPKNFMELLTNQEAQQWVSGWRLNADSVLWGGHKVFMVKPEEPFQPVKEATQL [I84Y],0.0664,,0.0599,,0.0686,0.047,,,0.0629,,0.0528,0.0425,0.0533,,,0.0714,0.062,
MGESLFKGPRDYNPISSSICHLTNESDGHTTSLYGIGFGPFIITNKHLFRRNNGTLVVQSLHGVFKVKDTTTLQQHLVCGRDMIIIRMPKDFPPFPQKLKFREPQREERICLVTTNFQTKSMSSMVSDTSCTFPSGDGIFWKHWIQTKDGQCGSPLVSTRDGFIVGIHSASNFTNTNNYFTSVPKNFMELLTNQEAQQWVSGWRLNADSVLWGGHKVFMVKPEEPFQPVKEATQL [D79C],0.114,,,,0.0908,0.0684,,0.0631,,,,,0.0713,,0.0851,,,
MGESLFKGPRDYNPISSSICHLTNESDGHTTSLYGIGFGPFIITNKHLFRRNNGTLVVQSLHGVFKVKDTTTLQQHLVDGRDMIIIRMPKDFPPFPQKLKFREPQREERICLVTTNFQTKSMSSMVSDTSCTFFSGDGIFWKHWIQTKDGQCGSPLVSTRDGFIVGIHSASNFTNTNNYFTSVPKNFMELLTNQEAQQWVSGWRLNADSVLWGGHKVFMVKPEEPFQPVKEATQL [P134F],0.0386,0.0526,,,0.0618,,,0.0564,0.061,0.0592,0.0636,,0.0589,0.0711,0.0736,0.0543,0.0543,
MGESLFKGPRDYNPISSSICHLTNESDGHTTSLYGIGFGPFIITNKHLFRRNNGTLVVQSLHGVFKVKDTTTLQQHLVDGRDMIIIRMPKDFPPFPQKLKFREPQREERICLVTTIFQTKSMSSMVSDTSCTFPSGDGIFWKHWIQTKDGQCGSPLVSTRDGFIVGIHSASNFTNTNNYFTSVPKNFMELLTNQEAQQWVSGWRLNADSVLWGGHKVFMVKPEEPFQPVKEATQL [N116I],0.0758,0.0626,,0.029,,,0.0675,,0.0387,,,,,,0.0973,,,0.0926
MGESLFKGPRDYNPISSSICHLTNESDGHTTSLYGIGFGPFIITNKHLFRRNNGTLVVQSLHGVFKVKDTTTMQQHLVDGRDMIIIRMPKDFPPFPQKLKFREPQREERICLVTTNFQTKSMSSMVSDTSCTFPSGDGIFWKHWIQTKDGQCGSPLVSTRDGFIVGIHSASNFTNTNNYFTSVPKNFMELLTNQEAQQWVSGWRLNADSVLWGGHKVFMVKPEEPFQPVKEATQL [L73M],0.0502,0.0649,0.0905,0.0587,,,0.0594,0.0597,,0.108,0.0673,,0.0723,,0.114,0.0786,,
MGESLFKGPRDYNPISSSICHLTNESDGHTTSLYGIGFGPFIITNKHLFRRNNGTLVVQSLHGVFKVKDTTTLQQHLVDGRDMIIIRMPKDFPPFPQKLKFREPQREERICLVTTNFQTKSMSSMDSDTSCTFPSGDGIFWKHWIQTKDGQCGSPLVSTRDGFIVGIHSASNFTNTNNYFTSVPKNFMELLTNQEAQQWVSGWRLNADSVLWGGHKVFMVKPEEPFQPVKEATQL [V126D],0.0652,0.0609,0.123,0.0442,,,0.0658,0.0671,,0.0902,0.0529,,0.0723,,0.122,0.0781,0.0676,
MGESLFKGPRDYNPISSSICHLTNESDGHTTSLYGIGFGPFIITNKHLFRRNNGTLVVQSLHGVFKVKDTTTLQQHLVDGRDNIIIRMPKDFPPFPQKLKFREPQREERICLVTTNFQTKSMSSMVSDTSCTFPSGDGIFWKHWIQTKDGQCGSPLVSTRDGFIVGIHSASNFTNTNNYFTSVPKNFMELLTNQEAQQWVSGWRLNADSVLWGGHKVFMVKPEEPFQPVKEATQL [M83N],0.0533,0.0515,,0.0509,0.0429,0.0469,,,0.0515,0.0476,0.0508,0.0634,0.0442,0.0392,0.0616,0.0543,0.0301,
